{"source": "the supplement of paper PMC8728848", "binders": {"B1": {"name": "Clone730PsrP (Streptococcus pneumoniae) (protein)", "chain": "MDHHHHHHHHHHASENLYFQGAMVVGSQTAAATEATAKKVEEDRKKPASDYVASVTNVNLQSYAKRRKRSVDSIEQLLASIKNAAVFSGNTIVNGAPAINASLNIAKSETKVYTGEGVDSVYRVPIYYKLKVTNDGSKLTFTYTVTYVNPKTNDLGNISSMRPGYSIYNSGTSTQTMLTLGSDLGKPSGVKNYITDKNGRQVLSYNTSTMTTQGSGYTWGNGAQMNGFFAKKGYGLTSSWTVPITGTDTSFTFTPYAARTDRIGINYFNGGGKVVESSTT"}}, "assay_in_all_cases": "glycan array binding signal (z-score within array); higher = stronger binding", "details_in_all_cases": "glycan notation: IUPAC condensed, linker removed", "key": {"Gal(b1-2)Gal": {"biological_target": "Gal(b1-2)Gal", "method_in_brief": "(§1)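 Negative Z-scores can be read as non-binding. The Z-score is calculated within each array and then averaged across arrays of one protein sequence at different concentrations or buffers and across linkers. Arrays, 3228 in all, were curated from the Consortium for Functional Glycomics database and kept only where the protein sequence was available.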"}, "Gal(b1-3)Gal": {"biological_target": "Gal(b1-3)Gal", "method_in_brief": "as §1"}, "Gal(b1-3)Gal(b1-4)GlcNAc": {"biological_target": "Gal(b1-3)Gal(b1-4)GlcNAc", "method_in_brief": "as §1"}, "Gal(b1-3)GalNAc": {"biological_target": "Gal(b1-3)GalNAc", "method_in_brief": "as §1"}, "[1]": {"biological_target": "Gal(b1-3)GalNAc(a1-3)[Fuc(a1-2)]Gal(b1-4)Glc", "method_in_brief": "as §1"}, "[2]": {"biological_target": "Gal(b1-3)GalNAc(a1-3)[Fuc(a1-2)]Gal(b1-4)GlcNAc", "method_in_brief": "as §1"}, "Gal(b1-3)GalNAc(b1-3)Gal": {"biological_target": "Gal(b1-3)GalNAc(b1-3)Gal", "method_in_brief": "as §1"}, "[3]": {"biological_target": "Gal(b1-3)GalNAc(b1-3)Gal(a1-4)Gal(b1-4)Glc", "method_in_brief": "as §1"}, "[4]": {"biological_target": "Gal(b1-3)GalNAc(b1-4)Gal(b1-4)Glc", "method_in_brief": "as §1"}, "[5]": {"biological_target": "Gal(b1-3)GalNAc(b1-4)[Neu5Ac(a2-3)]Gal(b1-4)Glc", "method_in_brief": "as §1"}, "Gal(b1-3)GlcNAc": {"biological_target": "Gal(b1-3)GlcNAc", "method_in_brief": "as §1"}, "[6]": {"biological_target": "Gal(b1-3)GlcNAc(a1-3)Gal(b1-4)GlcNAc", "method_in_brief": "as §1"}, "[7]": {"biological_target": "Gal(b1-3)GlcNAc(a1-6)Gal(b1-4)GlcNAc", "method_in_brief": "as §1"}, "Gal(b1-3)GlcNAc(b1-2)Man": {"biological_target": "Gal(b1-3)GlcNAc(b1-2)Man", "method_in_brief": "as §1"}, "[8]": {"biological_target": "Gal(b1-3)GlcNAc(b1-2)Man(a1-3)[Gal(b1-3)GlcNAc(b1-2)Man(a1-6)]Man(b1-4)GlcNAc(b1-4)GlcNAc", "method_in_brief": "as §1"}, "[9]": {"biological_target": "Gal(b1-3)GlcNAc(b1-2)Man(a1-3)[Gal(b1-3)GlcNAc(b1-2)Man(a1-6)]Man(b1-4)GlcNAc(b1-4)[Fuc(a1-6)]GlcNAc", "method_in_brief": "as §1"}, "[10]": {"biological_target": "Gal(b1-3)GlcNAc(b1-2)Man(a1-3)[GlcNAc(b1-4)][Gal(b1-3)GlcNAc(b1-2)Man(a1-6)]Man(b1-4)GlcNAc(b1-4)GlcNAc", "method_in_brief": "as §1"}, "[11]": {"biological_target": "Gal(b1-3)GlcNAc(b1-2)[Gal(b1-3)GlcNAc(b1-6)]Man(a1-6)[Gal(b1-3)GlcNAc(b1-2)Man(a1-3)]Man(b1-4)GlcNAc(b1-4)GlcNAc", "method_in_brief": "as §1"}, "[12]": {"biological_target": "Gal(b1-3)GlcNAc(b1-3)Gal(b1-3)GlcNAc", "method_in_brief": "as §1"}, "[13]": {"biological_target": "Gal(b1-3)GlcNAc(b1-3)Gal(b1-4)Glc", "method_in_brief": "as §1"}, "[14]": {"biological_target": "Gal(b1-3)GlcNAc(b1-3)Gal(b1-4)GlcNAc", "method_in_brief": "as §1"}, "[15]": {"biological_target": "Gal(b1-3)GlcNAc(b1-3)Gal(b1-4)GlcNAc(b1-2)Man(a1-3)[Gal(b1-3)GlcNAc(b1-3)Gal(b1-4)GlcNAc(b1-2)Man(a1-6)]Man(b1-4)GlcNAc(b1-4)GlcNAc", "method_in_brief": "as §1"}, "[16]": {"biological_target": "Gal(b1-3)GlcNAc(b1-3)Gal(b1-4)GlcNAc(b1-2)[Gal(b1-3)GlcNAc(b1-3)Gal(b1-4)GlcNAc(b1-6)]Man(a1-6)[Gal(b1-3)GlcNAc(b1-3)Gal(b1-4)GlcNAc(b1-2)Man(a1-3)]Man(b1-4)GlcNAc(b1-4)[Fuc(a1-6)]GlcNAc", "method_in_brief": "as §1"}, "[17]": {"biological_target": "Gal(b1-3)GlcNAc(b1-3)Gal(b1-4)GlcNAc(b1-3)Gal(b1-4)GlcNAc(b1-2)[Gal(b1-3)GlcNAc(b1-3)Gal(b1-4)GlcNAc(b1-3)Gal(b1-4)GlcNAc(b1-6)]Man(a1-6)[Gal(b1-3)GlcNAc(b1-3)Gal(b1-4)GlcNAc(b1-3)Gal(b1-4)GlcNAc(b1-2)Man(a1-3)]Man(b1-4)GlcNAc(b1-4)[Fuc(a1-6)]GlcNAc", "method_in_brief": "as §1"}, "[18]": {"biological_target": "Gal(b1-3)GlcNAc(b1-3)Gal(b1-4)GlcNAc(b1-6)[Gal(b1-3)GlcNAc(b1-3)]Gal(b1-4)Glc", "method_in_brief": "as §1"}, "[19]": {"biological_target": "Gal(b1-3)GlcNAc(b1-3)Gal(b1-4)[Fuc(a1-3)]GlcNAc", "method_in_brief": "as §1"}, "[20]": {"biological_target": "Gal(b1-3)GlcNAc(b1-3)Gal(b1-4)[Fuc(a1-3)]GlcNAc(b1-6)[Gal(b1-3)GlcNAc(b1-3)]Gal(b1-4)Glc", "method_in_brief": "as §1"}, "[21]": {"biological_target": "Gal(b1-3)GlcNAc(b1-3)GalNAc", "method_in_brief": "as §1"}, "[22]": {"biological_target": "Gal(b1-3)GlcNAc(b1-6)Gal(b1-4)GlcNAc", "method_in_brief": "as §1"}, "[23]": {"biological_target": "Gal(b1-3)GlcNAc(b1-6)GalNAc", "method_in_brief": "as §1"}, "[24]": {"biological_target": "Gal(b1-3)GlcNAc(b1-6)[Gal(b1-3)]GalNAc", "method_in_brief": "as §1"}, "Gal(b1-3)GlcNAc6S": {"biological_target": "Gal(b1-3)GlcNAc6S", "method_in_brief": "as §1"}, "[25]": {"biological_target": "Gal(b1-3)[Fuc(a1-4)]GlcNAc", "method_in_brief": "as §1"}, "[26]": {"biological_target": "Gal(b1-3)[Fuc(a1-4)]GlcNAc(b1-2)Man", "method_in_brief": "as §1"}, "[27]": {"biological_target": "Gal(b1-3)[Fuc(a1-4)]GlcNAc(b1-2)Man(a1-3)[Gal(b1-3)[Fuc(a1-4)]GlcNAc(b1-2)Man(a1-6)]Man(b1-4)GlcNAc(b1-4)[Fuc(a1-6)]GlcNAc", "method_in_brief": "as §1"}, "[28]": {"biological_target": "Gal(b1-3)[Fuc(a1-4)]GlcNAc(b1-3)Gal(b1-3)[Fuc(a1-4)]GlcNAc", "method_in_brief": "as §1"}, "[29]": {"biological_target": "Gal(b1-3)[Fuc(a1-4)]GlcNAc(b1-3)Gal(b1-4)[Fuc(a1-3)]GlcNAc", "method_in_brief": "as §1"}}, "note": "The list shows a part of the results.", "data": [{"binder": "B1", "values": [{"measurement": "glycan array binding signal (z-score)", "setting": "Gal(b1-2)Gal", "value": 0.055}, {"measurement": "glycan array binding signal (z-score)", "setting": "Gal(b1-3)Gal", "value": -0.487}, {"measurement": "glycan array binding signal (z-score)", "setting": "Gal(b1-3)Gal(b1-4)GlcNAc", "value": -0.231}, {"measurement": "glycan array binding signal (z-score)", "setting": "Gal(b1-3)GalNAc", "value": -0.338}, {"measurement": "glycan array binding signal (z-score)", "setting": "[1]", "value": 0.256}, {"measurement": "glycan array binding signal (z-score)", "setting": "[2]", "value": -0.265}, {"measurement": "glycan array binding signal (z-score)", "setting": "Gal(b1-3)GalNAc(b1-3)Gal", "value": 1.01}, {"measurement": "glycan array binding signal (z-score)", "setting": "[3]", "value": 0.583}, {"measurement": "glycan array binding signal (z-score)", "setting": "[4]", "value": 0.504}, {"measurement": "glycan array binding signal (z-score)", "setting": "[5]", "value": 2.82}, {"measurement": "glycan array binding signal (z-score)", "setting": "Gal(b1-3)GlcNAc", "value": 0.33}, {"measurement": "glycan array binding signal (z-score)", "setting": "[6]", "value": -0.595}, {"measurement": "glycan array binding signal (z-score)", "setting": "[7]", "value": 0.116}, {"measurement": "glycan array binding signal (z-score)", "setting": "Gal(b1-3)GlcNAc(b1-2)Man", "value": 0.272}, {"measurement": "glycan array binding signal (z-score)", "setting": "[8]", "value": -0.23}, {"measurement": "glycan array binding signal (z-score)", "setting": "[9]", "value": -0.285}, {"measurement": "glycan array binding signal (z-score)", "setting": "[10]", "value": -0.155}, {"measurement": "glycan array binding signal (z-score)", "setting": "[11]", "value": 19.3}, {"measurement": "glycan array binding signal (z-score)", "setting": "[12]", "value": 0.161}, {"measurement": "glycan array binding signal (z-score)", "setting": "[13]", "value": -0.155}, {"measurement": "glycan array binding signal (z-score)", "setting": "[14]", "value": -0.437}, {"measurement": "glycan array binding signal (z-score)", "setting": "[15]", "value": -0.281}, {"measurement": "glycan array binding signal (z-score)", "setting": "[16]", "value": -0.352}, {"measurement": "glycan array binding signal (z-score)", "setting": "[17]", "value": -0.109}, {"measurement": "glycan array binding signal (z-score)", "setting": "[18]", "value": -0.26}, {"measurement": "glycan array binding signal (z-score)", "setting": "[19]", "value": -0.476}, {"measurement": "glycan array binding signal (z-score)", "setting": "[20]", "value": -0.518}, {"measurement": "glycan array binding signal (z-score)", "setting": "[21]", "value": -0.617}, {"measurement": "glycan array binding signal (z-score)", "setting": "[22]", "value": -0.039}, {"measurement": "glycan array binding signal (z-score)", "setting": "[23]", "value": -0.605}, {"measurement": "glycan array binding signal (z-score)", "setting": "[24]", "value": -0.501}, {"measurement": "glycan array binding signal (z-score)", "setting": "Gal(b1-3)GlcNAc6S", "value": -0.543}, {"measurement": "glycan array binding signal (z-score)", "setting": "[25]", "value": 0.134}, {"measurement": "glycan array binding signal (z-score)", "setting": "[26]", "value": -0.57}, {"measurement": "glycan array binding signal (z-score)", "setting": "[27]", "value": 0.133}, {"measurement": "glycan array binding signal (z-score)", "setting": "[28]", "value": -0.6}, {"measurement": "glycan array binding signal (z-score)", "setting": "[29]", "value": -0.554}]}]}
